From paper PMC9911399, “Two distinct binding modes provide the RNA-binding protein RbFox with extraordinary sequence specificity”
Positions count from the first letter of the chain named. Some of the results follow.

T1: RBFOX1 RRM RbFoxmut (Fox-RRM*) (Homo sapiens, UniProt Q9NWB1 109-208, R118D;E147R;N151S;E152T)
T1 sequence: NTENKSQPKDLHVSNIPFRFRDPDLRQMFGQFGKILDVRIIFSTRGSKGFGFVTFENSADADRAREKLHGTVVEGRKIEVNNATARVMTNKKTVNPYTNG

B1: CCGCCCC (DNA:RNA)
RNA: GGGAGACCGGAAUUCAGAUUGUCCCCGCCCCUUAAAUCCCGUCGUAGCCACCA
DNA 1: CAATCTGAATTCCGGTCTCCC
DNA 2: TGGTGGCTACGACGGGATT
B2: CCGGCUC (DNA:RNA)
RNA: B1 RNA with C28G, C30U
DNA 1: CAATCTGAATTCCGGTCTCCC
DNA 2: TGGTGGCTACGACGGGATT
B3: GUUAAAU (DNA:RNA)
RNA: GGGAGACCGGAAUUCAGAUUGUCCGUUAAAUUUAAAUCCCGUCGUAGCCACCA
DNA 1: CAATCTGAATTCCGGTCTCCC
DNA 2: TGGTGGCTACGACGGGATT
B4: GUACAAC (DNA:RNA)
RNA: B3 RNA with U27A, A28C, U31C
DNA 1: CAATCTGAATTCCGGTCTCCC
DNA 2: TGGTGGCTACGACGGGATT
B5: AUGCAUA (DNA:RNA)
RNA: B1 RNA with C25A, C26U, C29A, C30U, C31A
DNA 1: CAATCTGAATTCCGGTCTCCC
DNA 2: TGGTGGCTACGACGGGATT
B6: AUAACGU (DNA:RNA)
RNA: B3 RNA with G25A, U27A, A29C, A30G
DNA 1: CAATCTGAATTCCGGTCTCCC
DNA 2: TGGTGGCTACGACGGGATT
B7: CGACUGA (DNA:RNA)
RNA: B1 RNA with C26G, G27A, C29U, C30G, C31A
DNA 1: CAATCTGAATTCCGGTCTCCC
DNA 2: TGGTGGCTACGACGGGATT
B8: ACACGCU (DNA:RNA)
RNA: B1 RNA with C25A, G27A, C29G, C31U
DNA 1: CAATCTGAATTCCGGTCTCCC
DNA 2: TGGTGGCTACGACGGGATT
B9: GAAAGCU (DNA:RNA)
RNA: B3 RNA with U26A, U27A, A29G, A30C
DNA 1: CAATCTGAATTCCGGTCTCCC
DNA 2: TGGTGGCTACGACGGGATT
B10: GCGGUUA (DNA:RNA)
RNA: B1 RNA with C25G, C28G, C29U, C30U, C31A
DNA 1: CAATCTGAATTCCGGTCTCCC
DNA 2: TGGTGGCTACGACGGGATT
B11: UUAGUUC (DNA:RNA)
RNA: B1 RNA with C25U, C26U, G27A, C28G, C29U, C30U
DNA 1: CAATCTGAATTCCGGTCTCCC
DNA 2: TGGTGGCTACGACGGGATT
B12: UGUCCGC (DNA:RNA)
RNA: B1 RNA with C25U, C26G, G27U, C30G
DNA 1: CAATCTGAATTCCGGTCTCCC
DNA 2: TGGTGGCTACGACGGGATT
B13: CUCACCC (DNA:RNA)
RNA: B1 RNA with C26U, G27C, C28A
DNA 1: CAATCTGAATTCCGGTCTCCC
DNA 2: TGGTGGCTACGACGGGATT
B14: GCCGGGA (DNA:RNA)
RNA: B1 RNA with C25G, G27C, C28G, C29G, C30G, C31A
DNA 1: CAATCTGAATTCCGGTCTCCC
DNA 2: TGGTGGCTACGACGGGATT
B15: UGACUCA (DNA:RNA)
RNA: B1 RNA with C25U, C26G, G27A, C29U, C31A
DNA 1: CAATCTGAATTCCGGTCTCCC
DNA 2: TGGTGGCTACGACGGGATT
B16: UCUCUUG (DNA:RNA)
RNA: B1 RNA with C25U, G27U, C29U, C30U, C31G
DNA 1: CAATCTGAATTCCGGTCTCCC
DNA 2: TGGTGGCTACGACGGGATT
B17: AAUUCCU (DNA:RNA)
RNA: B1 RNA with C25A, C26A, G27U, C28U, C31U
DNA 1: CAATCTGAATTCCGGTCTCCC
DNA 2: TGGTGGCTACGACGGGATT
B18: AAAACCU (DNA:RNA)
RNA: B1 RNA with C25A, C26A, G27A, C28A, C31U
DNA 1: CAATCTGAATTCCGGTCTCCC
DNA 2: TGGTGGCTACGACGGGATT
B19: UUUAUGC (DNA:RNA)
RNA: B3 RNA with G25U, A29U, A30G, U31C
DNA 1: CAATCTGAATTCCGGTCTCCC
DNA 2: TGGTGGCTACGACGGGATT
B20: AUAAGCC (DNA:RNA)
RNA: B1 RNA with C25A, C26U, G27A, C28A, C29G
DNA 1: CAATCTGAATTCCGGTCTCCC
DNA 2: TGGTGGCTACGACGGGATT
B21: UUAUCUG (DNA:RNA)
RNA: B1 RNA with C25U, C26U, G27A, C28U, C30U, C31G
DNA 1: CAATCTGAATTCCGGTCTCCC
DNA 2: TGGTGGCTACGACGGGATT
B22: GUGGGCA (DNA:RNA)
RNA: B1 RNA with C25G, C26U, C28G, C29G, C31A
DNA 1: CAATCTGAATTCCGGTCTCCC
DNA 2: TGGTGGCTACGACGGGATT
B23: UCCAAUG (DNA:RNA)
RNA: B3 RNA with G25U, U26C, U27C, A30U, U31G
DNA 1: CAATCTGAATTCCGGTCTCCC
DNA 2: TGGTGGCTACGACGGGATT
B24: CCGAUCC (DNA:RNA)
RNA: B1 RNA with C28A, C29U
DNA 1: CAATCTGAATTCCGGTCTCCC
DNA 2: TGGTGGCTACGACGGGATT
B25: CGAGCGU (DNA:RNA)
RNA: B1 RNA with C26G, G27A, C28G, C30G, C31U
DNA 1: CAATCTGAATTCCGGTCTCCC
DNA 2: TGGTGGCTACGACGGGATT
B26: UUUCUCC (DNA:RNA)
RNA: B1 RNA with C25U, C26U, G27U, C29U
DNA 1: CAATCTGAATTCCGGTCTCCC
DNA 2: TGGTGGCTACGACGGGATT
B27: CUGGACC (DNA:RNA)
RNA: B1 RNA with C26U, C28G, C29A
DNA 1: CAATCTGAATTCCGGTCTCCC
DNA 2: TGGTGGCTACGACGGGATT
B28: AGCGAGG (DNA:RNA)
RNA: B3 RNA with G25A, U26G, U27C, A28G, A30G, U31G
DNA 1: CAATCTGAATTCCGGTCTCCC
DNA 2: TGGTGGCTACGACGGGATT
B29: UCCAGGC (DNA:RNA)
RNA: B1 RNA with C25U, G27C, C28A, C29G, C30G
DNA 1: CAATCTGAATTCCGGTCTCCC
DNA 2: TGGTGGCTACGACGGGATT
B30: GGAAGCU (DNA:RNA)
RNA: B3 RNA with U26G, U27A, A29G, A30C
DNA 1: CAATCTGAATTCCGGTCTCCC
DNA 2: TGGTGGCTACGACGGGATT
B31: CAGGUUC (DNA:RNA)
RNA: B1 RNA with C26A, C28G, C29U, C30U
DNA 1: CAATCTGAATTCCGGTCTCCC
DNA 2: TGGTGGCTACGACGGGATT

The binders below were run against T1, RBFOX1 RRM RbFoxmut (Fox-RRM*) (assay: EMSA; HiTS-Eq, 1 nM pool, 10 min; buffer printed only for the single-RNA assays: 10 mM Tris pH 7.5, 150 mM NaCl, 3.4 mM EDTA, 0.001% NP-40, 30 C). Settings: tags: His6 N-terminal (pET28a); label: 5' 32P.
Summary of the method: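 These values rest on relative association constants, computed from read-count changes of each RNA species versus the control reaction and normalised to the cognate motif. Reads came from free RNA recovered by 8% native PAGE after purified RbFox RRM (wild type or mutant) at increasing concentrations was equilibrated for 10 min in 50 µL with 1 nM of a 5′-radiolabelled pool with 7 randomized nucleotides and DNA-annealed flanks.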

Row | Binder | binding signal
1 | B1 | 0.0683 KA relative to UGCAUGU
2 | B2 | 0.061 KA relative to UGCAUGU
3 | B3 | 0.0819 KA relative to UGCAUGU
4 | B4 | 0.0612 KA relative to UGCAUGU
5 | B5 | 0.161 KA relative to UGCAUGU
6 | B6 | 0.107 KA relative to UGCAUGU
7 | B7 | 0.144 KA relative to UGCAUGU
8 | B8 | 0.085 KA relative to UGCAUGU
9 | B9 | 0.0545 KA relative to UGCAUGU
10 | B10 | 0.131 KA relative to UGCAUGU
11 | B11 | 0.0952 KA relative to UGCAUGU
12 | B12 | 0.11 KA relative to UGCAUGU
13 | B13 | 0.0858 KA relative to UGCAUGU
14 | B14 | 0.117 KA relative to UGCAUGU
15 | B15 | 0.133 KA relative to UGCAUGU
16 | B16 | 0.103 KA relative to UGCAUGU

Row | Binder | binding signal
17 | B17 | 0.0468 KA relative to UGCAUGU
18 | B18 | 0.0698 KA relative to UGCAUGU
19 | B19 | 0.134 KA relative to UGCAUGU
20 | B20 | 0.1 KA relative to UGCAUGU
21 | B21 | 0.0695 KA relative to UGCAUGU
22 | B22 | 0.105 KA relative to UGCAUGU
23 | B23 | 0.117 KA relative to UGCAUGU
24 | B24 | 0.0468 KA relative to UGCAUGU
25 | B25 | 0.117 KA relative to UGCAUGU
26 | B26 | 0.0455 KA relative to UGCAUGU
27 | B27 | 0.082 KA relative to UGCAUGU
28 | B28 | 0.0956 KA relative to UGCAUGU
29 | B29 | 0.0951 KA relative to UGCAUGU
30 | B30 | 0.055 KA relative to UGCAUGU
31 | B31 | 0.137 KA relative to UGCAUGU
